The campaign covered roughly 310,000 compounds. About 14,000 (4.5%) showed an effect of 50% or more. Effects have a minus sign here. The list shows a part of the results.

The record followed here is PMC4336329 (PLoS ONE, 2015).
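Also: peak tail current of the secondary pulse compared with the same well before compound.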

The target of the experiment is human ether-à-go-go-related gene (hERG) potassium channel (human, UniProt Q12809). The experiment can be described thus: primary screen, population patch clamp on CHO cells stably expressing hERG.
Chain of human ether-à-go-go-related gene (hERG) potassium channel (Q12809 whole entry, looked up): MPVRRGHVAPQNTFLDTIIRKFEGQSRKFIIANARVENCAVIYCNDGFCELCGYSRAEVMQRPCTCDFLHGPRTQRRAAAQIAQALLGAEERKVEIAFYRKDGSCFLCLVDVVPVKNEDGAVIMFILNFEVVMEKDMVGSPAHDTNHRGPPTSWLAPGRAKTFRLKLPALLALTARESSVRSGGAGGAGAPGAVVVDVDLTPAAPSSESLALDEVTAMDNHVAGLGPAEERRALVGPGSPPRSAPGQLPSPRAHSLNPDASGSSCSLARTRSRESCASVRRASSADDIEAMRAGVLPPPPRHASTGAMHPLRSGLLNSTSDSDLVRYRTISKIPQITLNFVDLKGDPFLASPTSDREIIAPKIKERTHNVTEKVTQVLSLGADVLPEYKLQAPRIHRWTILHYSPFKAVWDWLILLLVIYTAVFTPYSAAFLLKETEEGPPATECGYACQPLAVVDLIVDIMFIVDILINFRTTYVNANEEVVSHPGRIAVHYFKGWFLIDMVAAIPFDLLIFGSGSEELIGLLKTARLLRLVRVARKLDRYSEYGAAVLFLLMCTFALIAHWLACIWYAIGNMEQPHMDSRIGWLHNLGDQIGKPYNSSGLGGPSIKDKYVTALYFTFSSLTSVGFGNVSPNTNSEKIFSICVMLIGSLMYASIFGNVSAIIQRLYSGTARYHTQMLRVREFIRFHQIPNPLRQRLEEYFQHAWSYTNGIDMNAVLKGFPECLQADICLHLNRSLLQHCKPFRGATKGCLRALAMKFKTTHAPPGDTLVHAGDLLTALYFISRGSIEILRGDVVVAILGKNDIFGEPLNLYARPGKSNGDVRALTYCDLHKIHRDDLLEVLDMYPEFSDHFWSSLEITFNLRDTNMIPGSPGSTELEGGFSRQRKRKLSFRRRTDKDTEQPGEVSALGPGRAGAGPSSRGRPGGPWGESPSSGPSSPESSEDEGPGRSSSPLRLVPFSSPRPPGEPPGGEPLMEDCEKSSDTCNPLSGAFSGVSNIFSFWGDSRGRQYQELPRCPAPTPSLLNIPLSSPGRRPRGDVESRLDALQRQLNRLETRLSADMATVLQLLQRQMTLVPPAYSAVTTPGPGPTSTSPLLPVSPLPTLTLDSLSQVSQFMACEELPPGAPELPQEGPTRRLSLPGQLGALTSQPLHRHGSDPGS
Regarding `COC(=O)Nc1nnc(COc2ccccc2)s1`, the “hERG current change (%, negative = inhibition) at 10uM” value amounted to 26.4%. Under `COc1cc(/C=C2/C(=N)N3N=C(C(C)C)SC3=NC2=O)ccc1OS(=O)(=O)c1ccccc1` stands 6.72%; under `COc1ccc(OC)c(Nc2nc3ccc(C)cc3n3cnnc23)c1`, -1.09%; under `Cn1nc(-c2ccc(N3CCOCC3)c(NS(=O)(=O)c3ccc(Cl)cc3)c2)c2ccccc2c1=O`, -9.74%.

Regarding `C/C(=N\OCc1cccc(C(=O)O)c1)c1ccc(Cl)cc1`, the “hERG current change (%, negative = inhibition) at 10uM” value turned out to be 5.57%. Take `O=C(Nc1ccccc1F)c1ccc(CNS(=O)(=O)c2cccc(C(F)(F)F)c2)cc1`: the “hERG current change (%, negative = inhibition) at 10uM” value is on record as -0.769%. Under `CS(=O)(=O)N1CCC(Oc2ccccc2C(=O)N2CCNC(=O)C2)CC1` stands 12.1%.

In the case of `CCOc1ccc(-c2nc(N)ncc2-c2ccc(OC)cc2)c(O)c1`, the “hERG current change (%, negative = inhibition) at 10uM” value is listed as 9.52%. Under `CC(=O)Nc1sc2c(c1C#N)CCCC2` stands 13.2%; under `CCOC(=O)C1(Cc2ccc(OC)cc2)CCN(C(=O)c2cc(C)on2)CC1`, -6.3%; under `Cc1cc2nc3c(=O)n(CCc4ccccc4)c(=O)[nH]c3nc2cc1N`, 18.5%. Take `O=C(CCNS(=O)(=O)c1ccc(Br)cc1)NCC1CCCO1` (centres unmarked): the “hERG current change (%, negative = inhibition) at 10uM” value is 13.1%. Under `Cc1ccc(CNc2nc(-c3cccnc3)nc3ccccc23)cc1` stands 8.72%. With `O=C(CN1CCN(c2ncccn2)CC1)N1CCCC1.O=C(O)C(=O)O`, the “hERG current change (%, negative = inhibition) at 10uM” value came to 4.95%.

As to `COc1cccc(-n2c(=S)[nH]c3ccccc3c2=O)c1`, the “hERG current change (%, negative = inhibition) at 10uM” value was 20.8%.

Turning to `c1cncc(-c2noc(-c3ccco3)n2)c1`, the “hERG current change (%, negative = inhibition) at 10uM” value was -4.57%. Take `O=C(c1cc2c(=O)n3ccccc3nc2s1)N1CCc2ccccc2C1`: the “hERG current change (%, negative = inhibition) at 10uM” value is given as -21.5%. As to `O=C(OC1CCCCC1=O)c1cccc(S(=O)(=O)N2CCOCC2)c1` (centres unmarked), the “hERG current change (%, negative = inhibition) at 10uM” value is on record as 9.82%.

For the molecule `Cc1nc(NC(=O)C2CC2)sc1C(=O)N1CCCCC1`, the “hERG current change (%, negative = inhibition) at 10uM” value is on record as -4.2%. With `CCc1ccc(N(CC(=O)NC2CCCC2)S(=O)(=O)c2c(C)noc2C)cc1` the figure was -7.76%. With `O=c1cc(-c2ccccc2Cl)oc2cc(O)cc(O)c12` the figure was 2.81%; with `CCOc1ccc(C(=O)NC(=S)Nc2cc(C)ccn2)cc1[N+](=O)[O-]`, 15.5%; with `Cc1cc(C(=O)OC(C)C(=O)N2CCc3ccccc32)ccc1[N+](=O)[O-]` (centres unmarked), -3.61%.

With `CCN1C(=O)c2cccc3c(Cl)ccc1c23`, the “hERG current change (%, negative = inhibition) at 10uM” value was -8.15%. Take `CC(=O)c1cc(-c2ccccc2)n(CC(=O)NC(C)(C)C)c1C`: the “hERG current change (%, negative = inhibition) at 10uM” value is given as -1.35%. With `Cn1nc(C(=O)Nc2nnc(C3CC3)s2)c2ccccc2c1=O` the figure was 25%; with `COC(=O)CC1C(=O)NCCN1C(=S)NC(=O)CCc1ccccc1` (centres unmarked), 6.79%; with `CN(O)/C=N/C(=S)Nc1ccc(Cl)cc1Cl`, 23.3%. With `O=C(O)c1cc(-c2ccccc2Cl)n[nH]1` the figure was 4.91%; with `O=C(Cc1cccc2ccccc12)N/N=C/C=C/c1cccc([N+](=O)[O-])c1`, 4.55%. Under `CCCCCNC(=O)Cc1ccc(S(=O)(=O)N2CCOCC2)s1` stands -5.94%. On to `C=CCN(CC=C)C(=S)NCCc1ccc(OC)c(OC)c1`, for which the “hERG current change (%, negative = inhibition) at 10uM” value was -3.41%.

Take `CCOC(=O)c1c(-c2ccccc2)oc2ccc(O)c(CN3CCN(C)CC3)c12`: the “hERG current change (%, negative = inhibition) at 10uM” value was -23.5%. With `Cc1csc(NC(=O)CNS(=O)(=O)c2cccs2)n1`, the “hERG current change (%, negative = inhibition) at 10uM” value was 18%. For `COC(=O)C1=C(C)N(CCCC(=O)O)C(=O)NC1c1ccc(OC)cc1` (centres unmarked), the “hERG current change (%, negative = inhibition) at 10uM” value was found to be 11.2%. Take `CCOCCCn1c(=S)[nH]c2ncccc2c1=O`: the “hERG current change (%, negative = inhibition) at 10uM” value came out at 12.1%. Under `Cc1cc(Nc2ccc(N3CCC(C)CC3)cc2)n2ncnc2n1` stands 2.04%; under `Cc1ccc(Nc2ccc([N+](=O)[O-])nc2[N+](=O)[O-])cc1`, -0.801%.

Turning to `Cc1nn(-c2ccccc2)c(C)c1P(=O)(c1ccccc1)N(C)C` (centres unmarked), the “hERG current change (%, negative = inhibition) at 10uM” value was 14.8%. Under `CCOc1ccc(CCNC(=O)C2CC(=O)N(c3ccc4c(c3)OCCO4)C2)cc1OCC` (centres unmarked) stands 19.5%; under `CCOc1ccc(Nc2nc(Cc3nnc(SCC(=O)NCC4CCCO4)n3C)cs2)cc1` (centres unmarked), -3.74%. Under `COc1ccc2[nH]c(C(=O)N3CCC(Cc4ccccc4)CC3)cc2c1` stands 19.2%.

On to `COc1ccc(CN2C(=O)c3cccnc3C2=O)cc1S(=O)(=O)N1CCCCC1`, for which the “hERG current change (%, negative = inhibition) at 10uM” value is -2.62%. With `COc1ccc(-c2nnc(SCC(=O)Nc3cc(F)ccc3C)o2)cc1` the figure was -4.65%.
